Reference: article PMC3342263
No constants are given. Whether binding was seen depends on the method and setting. Binding seen in cells or lysates may run through a third protein. Some binding calls cover weakened binding; strength is not graded here. Tags and fused reporters may be left off the sequences shown.

Chains of the proteins cited; added tags and fusions are not shown.
UniProt Q60974: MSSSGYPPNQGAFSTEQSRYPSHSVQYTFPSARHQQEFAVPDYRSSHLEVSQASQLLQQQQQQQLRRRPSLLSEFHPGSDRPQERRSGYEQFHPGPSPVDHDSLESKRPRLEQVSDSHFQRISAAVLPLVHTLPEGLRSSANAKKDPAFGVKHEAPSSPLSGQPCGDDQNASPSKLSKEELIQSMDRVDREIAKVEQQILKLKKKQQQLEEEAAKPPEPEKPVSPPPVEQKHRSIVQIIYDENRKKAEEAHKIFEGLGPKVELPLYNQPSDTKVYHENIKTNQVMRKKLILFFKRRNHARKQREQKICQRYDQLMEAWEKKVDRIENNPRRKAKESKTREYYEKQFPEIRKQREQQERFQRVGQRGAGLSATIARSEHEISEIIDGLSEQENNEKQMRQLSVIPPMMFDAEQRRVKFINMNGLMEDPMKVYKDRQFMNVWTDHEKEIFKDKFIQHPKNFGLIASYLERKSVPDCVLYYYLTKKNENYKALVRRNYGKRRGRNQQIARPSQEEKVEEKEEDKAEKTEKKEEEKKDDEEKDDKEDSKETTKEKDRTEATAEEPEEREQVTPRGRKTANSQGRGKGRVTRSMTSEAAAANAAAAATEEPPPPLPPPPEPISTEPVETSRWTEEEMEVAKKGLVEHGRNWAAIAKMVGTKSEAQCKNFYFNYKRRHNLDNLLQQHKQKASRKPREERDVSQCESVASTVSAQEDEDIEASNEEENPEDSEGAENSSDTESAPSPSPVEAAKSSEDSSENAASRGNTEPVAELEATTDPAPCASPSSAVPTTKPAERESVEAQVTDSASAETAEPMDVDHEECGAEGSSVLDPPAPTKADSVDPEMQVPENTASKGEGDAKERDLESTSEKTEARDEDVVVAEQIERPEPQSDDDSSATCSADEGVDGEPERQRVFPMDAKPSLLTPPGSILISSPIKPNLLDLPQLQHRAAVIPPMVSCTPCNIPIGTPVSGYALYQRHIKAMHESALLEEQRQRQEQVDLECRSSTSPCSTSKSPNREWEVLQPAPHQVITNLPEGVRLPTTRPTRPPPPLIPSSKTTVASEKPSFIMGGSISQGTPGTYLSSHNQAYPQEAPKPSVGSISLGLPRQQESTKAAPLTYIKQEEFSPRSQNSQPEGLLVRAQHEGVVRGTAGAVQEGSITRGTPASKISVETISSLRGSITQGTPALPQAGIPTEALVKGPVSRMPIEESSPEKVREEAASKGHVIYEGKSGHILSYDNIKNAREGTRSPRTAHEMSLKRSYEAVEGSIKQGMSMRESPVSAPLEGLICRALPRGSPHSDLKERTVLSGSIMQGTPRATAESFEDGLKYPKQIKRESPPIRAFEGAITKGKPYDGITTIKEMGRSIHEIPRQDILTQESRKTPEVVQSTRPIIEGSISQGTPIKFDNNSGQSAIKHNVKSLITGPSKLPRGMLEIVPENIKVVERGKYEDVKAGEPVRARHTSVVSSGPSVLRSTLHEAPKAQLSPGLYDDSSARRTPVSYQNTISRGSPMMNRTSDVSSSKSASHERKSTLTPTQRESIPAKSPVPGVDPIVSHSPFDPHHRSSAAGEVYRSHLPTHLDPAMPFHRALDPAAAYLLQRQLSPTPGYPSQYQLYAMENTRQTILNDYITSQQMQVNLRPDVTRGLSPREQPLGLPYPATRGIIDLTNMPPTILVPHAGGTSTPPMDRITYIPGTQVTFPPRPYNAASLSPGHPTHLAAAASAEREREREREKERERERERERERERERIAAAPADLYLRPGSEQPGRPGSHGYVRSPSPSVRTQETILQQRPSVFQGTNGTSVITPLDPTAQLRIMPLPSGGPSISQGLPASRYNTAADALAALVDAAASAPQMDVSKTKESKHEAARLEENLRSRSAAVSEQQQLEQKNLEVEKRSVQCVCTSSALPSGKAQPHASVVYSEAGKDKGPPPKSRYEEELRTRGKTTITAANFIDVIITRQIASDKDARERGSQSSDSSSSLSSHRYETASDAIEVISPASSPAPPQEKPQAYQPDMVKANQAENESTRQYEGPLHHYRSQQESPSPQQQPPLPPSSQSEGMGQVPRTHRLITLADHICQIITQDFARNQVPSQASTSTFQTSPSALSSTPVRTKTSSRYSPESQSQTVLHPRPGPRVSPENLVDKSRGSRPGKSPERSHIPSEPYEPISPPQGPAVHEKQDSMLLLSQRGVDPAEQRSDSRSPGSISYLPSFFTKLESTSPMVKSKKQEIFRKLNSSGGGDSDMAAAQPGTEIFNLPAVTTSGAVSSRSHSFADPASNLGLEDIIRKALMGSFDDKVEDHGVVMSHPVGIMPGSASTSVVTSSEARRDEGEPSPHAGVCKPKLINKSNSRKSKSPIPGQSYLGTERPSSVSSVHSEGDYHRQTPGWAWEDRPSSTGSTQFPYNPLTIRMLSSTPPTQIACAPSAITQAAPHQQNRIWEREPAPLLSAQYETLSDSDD

How the values were obtained:
Experiment in all cases: co-IP; HEK293T cells transiently cotransfected for 48 h; lysates in 50 mM Tris-HCl pH 8.0, 150 mM NaCl, 5 mM EDTA, 0.5% NP-40; Snail2-HA precipitated overnight with anti-HA antibodies and sepharose G beads (NCoR panels) or anti-HA affinity matrix (CtBP1 panels); Western blot with anti-flag and anti-HA
[1] = biological target: T1, Snail2-HA wild type (mouse) (UniProt P97469)
T1 sequence: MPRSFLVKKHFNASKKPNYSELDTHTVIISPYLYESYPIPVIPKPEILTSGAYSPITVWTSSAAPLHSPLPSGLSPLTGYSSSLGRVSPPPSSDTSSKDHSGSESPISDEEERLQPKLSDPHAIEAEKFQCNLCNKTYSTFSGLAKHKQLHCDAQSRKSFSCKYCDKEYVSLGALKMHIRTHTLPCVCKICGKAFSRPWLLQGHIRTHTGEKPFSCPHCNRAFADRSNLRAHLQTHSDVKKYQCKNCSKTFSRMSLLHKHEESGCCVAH

[2] = biological target: T2, Snail2-HA ΔSNAG mutant (mouse) (UniProt P97469)
T2 sequence: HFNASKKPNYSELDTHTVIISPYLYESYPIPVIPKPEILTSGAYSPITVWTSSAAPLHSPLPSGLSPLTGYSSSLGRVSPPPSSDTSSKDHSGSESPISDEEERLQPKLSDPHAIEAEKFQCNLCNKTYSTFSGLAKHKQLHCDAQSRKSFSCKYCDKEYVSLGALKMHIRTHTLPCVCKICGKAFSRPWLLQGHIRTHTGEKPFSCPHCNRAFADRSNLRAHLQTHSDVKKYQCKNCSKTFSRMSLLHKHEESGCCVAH

[3] = biological target: T3, Snail2-HA ΔSLUG mutant (mouse) (UniProt P97469)
T3 sequence: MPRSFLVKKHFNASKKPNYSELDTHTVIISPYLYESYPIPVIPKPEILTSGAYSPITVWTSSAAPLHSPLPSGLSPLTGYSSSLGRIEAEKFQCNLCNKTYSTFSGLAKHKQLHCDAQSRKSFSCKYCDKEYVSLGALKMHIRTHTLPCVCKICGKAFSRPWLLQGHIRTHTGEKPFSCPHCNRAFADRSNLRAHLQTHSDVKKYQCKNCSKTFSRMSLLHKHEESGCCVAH

| Substance | binding [1] | binding [2] | binding [3] |
| --- | --- | --- | --- |
| CtBP1-flag (from UniProt O88712 1-441) | binds | binds | no binding |
| NCoR-flag (from UniProt Q60974 1-2453) | binds | no binding | binds |
